The values below come from PubChem BioAssay (NCI).

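Assay format: 96-well plates, 48-hour exposure. GI50: concentration for 50% inhibition of growth. Definition used: TGI = concentration required for complete inhibition of growth.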

The assay concerns NCI-H322M lung. In words: DTP human tumour cell line panel, 48 h.
One may read the GI50 as the concentration at which growth is held to half of that of the control. For orientation: TGI means the concentration giving total growth inhibition. In the case of `O=C(Nc1ccc(-c2nc(-c3cccc(O)c3)c(-c3ccnc(Br)c3)[nH]2)cc1)c1ccccc1`, the GI50 was 2050 nM and the TGI came out at 6200 nM.

For `N#Cc1c(-c2ccc(Cl)cc2)nc(SCc2ccccc2)nc1N1CCNCC1`, the GI50 is 1560 nM and the total growth inhibition concentration (TGI) was found to be 2910 nM.

`CCCC(=O)NC(c1ccc(N(CC)CC)cc1)c1cc(C)c2cccnc2c1O` (stereo unspecified): the GI50 was 501 nM and the TGI is greater than 100000 nM.
